Here are results for six molecules from article PMC12136788.

T1: UNK ZnF1-3 (human, UniProt Q9C0B0 31-174)
T1 sequence: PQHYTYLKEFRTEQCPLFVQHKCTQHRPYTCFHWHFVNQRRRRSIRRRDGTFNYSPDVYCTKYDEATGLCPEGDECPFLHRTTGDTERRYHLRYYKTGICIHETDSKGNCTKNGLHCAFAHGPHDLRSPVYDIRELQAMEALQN

B1: chr4:52499564:52499565:+_ENSMUSG00000028312_ENSMUST00000117280|mus_mus|FALSE|FALSE (ssRNA)
RNA: GGGAGUUCUACAGUCCGACGAUCCAUUAUUAUAUAAACAACUUGGAUCCCAAAUUCUUGGAAGUUCAUGUGUAAAAACGUCAAGGUGAGAAGUCUGUACUCUGAACUGGCAUGCACUCAGUUGGGUUCUUUUCCUCUGGACUUCAACAGAGGAUUGAGCAUCA
B2: chrX:119742084:119742085:+_ENSG00000232119_ENST00000371317|hu_hu|motif|central (ssRNA)
RNA: GGGAGUUCUACAGUCCGACGAUCAAAAGGAUAUUUGUGAAGUAAUCUUAGGGUUGGAUAAAAAGGCCCUUCUCUUUGUCGGAAAAAGAGUAAUUCUCCAUUUACUGUAAGGAUUUCUAUAUGUUCAUGGCAUCGGACUAUUUUCAACAGAGGAUUGAGCAUCA
B3: chr7:149068622:149068623:-_ENSMUSG00000025139_ENSMUST00000001950|mus_hu|mus_mus_mus_hu_False|1_98 (ssRNA)
RNA: GGGAGUUCUACAGUCCGACGAUCGUGAGGCCUCUGAGUGAGGUUCCUGGUCUGUCCUGGGUUAGAGUUGUUAAUAUCACGGAACAUACCAUCUAGAACGUUCCAGUCCCGCCUGACACCUUCAUUCCCAAUGGAGAAUCUGCUCAACAGAGGAUUGAGCAUCA
B4: 116312975_116323887_1210_CDS_ENSMUSG00000029516_ENSMUST00000051704|mouse|control|control (ssRNA)
RNA: GGGAGUUCUACAGUCCGACGAUCAUCCCCUCCAGGCUGAUAUUCCAUGACCAGGUAAAGGUUAUUUUUGUCCUGAAAGGCGUACUGUAACUGGGGGAUCCAAGGACUCGUGCUCCGAGAUAAUAUGUUCCUCUCCUCCUCGAACAACAGAGGAUUGAGCAUCA
B5: 46233861_46236241_1503_CDS_ENSMUSG00000037697_ENSMUST00000051310|mouse|control|control (ssRNA)
RNA: GGGAGUUCUACAGUCCGACGAUCGUAGUACAUGAUGUCCAUCGCGCUGCUGUUGAGCAUGUCCCUCAGGCCUCGCACUUUGUCAGGAGUGAUGGAAUCAACUGUGUCUCCAUCAAGAGUAAGCUUUGAUCGCCAUUCAACAGGCAACAGAGGAUUGAGCAUCA
B6: chr17:34945718:34945719:+_ENSG00000005955_ENST00000304718|hu_hu|motif|central (ssRNA)
RNA: GGGAGUUCUACAGUCCGACGAUCAUUUAACCGGCAGUAUUUAUUAAAUUUCUCCUUCAGAUGCUGUCGGUAUUGUUCUCGGUUGCUGUAGAAAGACUGGUUAUUAGCCAUAAAUGACUGUAUUUCAUCUUGUGAGAUAAAGAUCAACAGAGGAUUGAGCAUCA

The list shows a part of the results.

This test concerns the target T1, UNK ZnF1-3. Briefly: nsRBNS (natural sequence RNA bind-n-seq); RBNS binding buffer (assumed for nsRBNS): 25 mM Tris pH 7.5, 150 mM KCl, 3 mM MgCl2, 0.01% Triton X-100, 500 ug/ml BSA, 20 U/ml SUPERase-In, 4 C; UNK is unkempt and MSI1 is Musashi-1; names of the RNAs are library labels; protein concentration not given here; high values mean tight binding.
Molecule B1 registered a binding signal of 0.725 enrichment R.

Consider B2, for which the binding signal was determined as 0.454 enrichment R. B3 had a binding signal of 0.783 enrichment R. Under B4 stands 0.906 enrichment R; under B5, 0.731 enrichment R; under B6, 0.479 enrichment R.
